{
  "source": "the RNAGym collection of RNA variant scans (doi:10.1073/pnas.2313332121)",
  "parents": {"B1": {"name": "TPR 5TU (parent)", "chain": "GGAUCUUCUCGAUCUAACAAAAAAGACAAAUCUGCCACAAAGCUUGAGAGCAUCUUCGGAUGCAGAGGCGGCAGCCUUCGGUGGCGCGAUAGCGCCAACGUUCUCAACUAUGACACGCAAAACGCGUGCUCCGUUGAAUGGAGUUUAUCAUG"}},
  "note": "Variants at the background level are over-represented here.",
  "data": [
    {"variants_of": "B1", "test": "polymerase ribozyme fitness, log enrichment relative to wild type (log ratio); higher = more active; in vitro selection for triplet polymerase activity", "outline": "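In triplicate, a single round of in vitro selection was run on each mutant library, PCR-built and transcribed, covering one subunit of a heterodimeric triplet polymerase ribozyme. Frozen incubation at −7 °C followed annealing with a biotinylated primer, partner subunit and triplets, and extended constructs were then gel-excised, streptavidin-captured and taken through RT-PCR. Fitness is the logarithm of genotype enrichment over wild-type enrichment, from inverse-variance-weighted replicate averages of Illumina-sequenced inputs and outputs. […] only genotypes with ≥10 input reads and ≥1 read per output were kept.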", "values": [
      {"variant": "GGAUCUUCUCGAUGUAACAAAAAAGACAAAUCUGCCACAAAGCUUGAGAGCAUCUUAGGAUGCAGAGGCGGCAGCCUUCGGUGGCGCGAUAACGCUAACGUUCUCACCUAUGACACGCAAAACUCGUGCUCCGUUGAAUGGAGUUUAUCAUG", "polymerase ribozyme fitness (log ratio)": "≤ -4.2"},
      {"variant": "GGAUCUUCUCGAUGUAACAAAAAAGACAAAUCUGCCACAAAGCUUGAGAGCAUCUUCGGAUGCAGAGGCGGCAGCCUUCGGUGGAGCGAUAGCGGCAACGUUUUCAACUAUGACACGCAAAACGCGUGCUCCGUUGAAUGGAGUUAAUCAUG", "polymerase ribozyme fitness (log ratio)": "≤ -4.2"},
      {"variant": "GGAUCUUCUCGAUGUAACAAAAAACACAAAUCUGCCACAAAGCUUGUGAACAUCUUCGGAUGCAGAGGCGGCAGCCUUCGGUGGCGCGAUAGAGCCAACGUACUCAACUAUGACACGCAAAACCCGUGCUCCGUUGAAUGGAGUUUAUCAUG", "polymerase ribozyme fitness (log ratio)": "≤ -4.2"},
      {"variant": "GGAUCUUCUCGAUGUAACAAAAAAGACAAAUCUGCCACAAAGCUUGAGAACAUCUUCCGAUGCAGAGGCGGCAGCCUUCGGCGGCGCGAUAGCGCCAACGUUCUCAACUAUGACACGCAAAACGCGUGCUCCGUUGAAUGCAGUUUAUCAUG", "polymerase ribozyme fitness (log ratio)": -4.17},
      {"variant": "GGAUCUUCUCGAUGUAACAAAAAAGACAAAUCUGCCACAAAGCUUGAGAGCAUCUUCGGAUGCAGAGGCGGCAGCCUUCGGUGGCGCGAUAGCGCUAACGUUCUCAACUAUGACACGCAAAACGCGUGCUCCGUUGAAUGGAGUUUAUCAUG", "polymerase ribozyme fitness (log ratio)": -2.21},
      {"variant": "GGAUCUUCUCGAUGUAACAAAAAAGACAAAUCUGCCACAAAGCUUUAGAGCCUCUUCGGAUGCAGAGGCGGCAGCCUUCGGUGGCGCGAUAGCGCUAACGUUCGCAACGAUUACACGCAAAACGCGUGCUCCGUGGAAUGGAGAUUAUCAUG", "polymerase ribozyme fitness (log ratio)": "≤ -4.2"},
      {"variant": "GGAUCUUCUCGAUGUAACAAAAAAGACAAAUCUGCCACAAAGCUUGAGAGCAUCUUCGGAUGCAGAGGAGGCAGCAUUCGGUGGCGUGUUAGCGCCAACGUUCUCAAUUAUGACACGCAAAACGCGUGCUCCGUUGAAUGGAGUUUAUCAUG", "polymerase ribozyme fitness (log ratio)": "≤ -4.2"},
      {"variant": "GGAUCUUCUCGAUGUAACAAAAAAUACAAAUCUGCCACAAAGCUUGAGAGCAUCUUCGGAUGCAGAGGCGGCAGCCUUCGGUGGCGCGAUAGCGCCAACGUUCUCAACUAUGGGACGCAAAACGCGUGCUCCGUUGAAUGGAGUUAAUCAUG", "polymerase ribozyme fitness (log ratio)": "≤ -4.2"},
      {"variant": "GGAUCUUCUCGAUGUAACAAAAAAUACAAAUCUGCCACAAAGCUUGAGAGCAUCAUCGGAUGCAGAGGCGGCAGCCUUCGGUGGCGCGAUAGAGCCAACGUUCUCAACUAUGACACGCAAAACGCGUGCUCCGUUGAAUGGAGUUUAUCAUG", "polymerase ribozyme fitness (log ratio)": "≤ -4.2"},
      {"variant": "GGAUCUUCUCGAUGUAACAAAAAAGACAAAUCUGCCACAAAGCUUGAGAGCAUCUUUGGAUGCAGAGGCGGCAGCCUUCGGUGGCGCGAUCGCGCCAACGUUCUCAAUUAUGACACGCACAACGCGUGCUCCGUUGAAUGGAGUCUAUCAUG", "polymerase ribozyme fitness (log ratio)": "≤ -4.2"},
      {"variant": "GGAUCUUCUCGAUGUAACAAAAAAGACAAAUCUGCCACAAAGCUUGAGAGCAUCUUCGGAUGCAGAGGCGGCAGCCUUCGGUGGCGCGAUAGCGCCAAGGUUCUCAACUAUGACACGCAAAACGCGUGCUCCGUUGAAUGGAGUUUAUCAUG", "polymerase ribozyme fitness (log ratio)": -3.32},
      {"variant": "GGAUCUUCUCGAUGUAACAAAAAAGACAAAUCUACCACAAAGCCUGAGAGCAUCUUCGGAUGAAGAGGCGGCAGCCUUCGGUGGCGCGAUAGCGCCAACGUUCUCAACUAUGACACGCAAAACGCGUGCUCCGUUGAAUGGAGUUUAUCAUG", "polymerase ribozyme fitness (log ratio)": "≤ -4.2"},
      {"variant": "GGAUCUUCUCGAUGUAACAAAAAAGACAAAUCUGCCACAAAGCUUGAGAUCAUCUUCGGAUGCAGAGGCGGCUGCCUUCGGUGGCACGAUAGCGCCAACGUUCUCAACUAUGACACGCAAAACGCGUGCUCCGUUGAAUGGAGCUUAUCAUG", "polymerase ribozyme fitness (log ratio)": "≤ -4.2"},
      {"variant": "GGAUCUUCUCGAUGUAACAAAAAAGACAAAUCUGCCACAAAGCUUGAGACCAUCUUCGGAUGCAGGGGCGGCAGCCUUCGGUGGGGCGAUAGCGCCAACGUUCUCGACUAUGACACGCAAAACGCGUGCUCCGUUGAAUGGAGUUUAUCAUG", "polymerase ribozyme fitness (log ratio)": "≤ -4.2"},
      {"variant": "GGAUCUUCUCGAUGUAACAAAAAAGACAAAUCUGCCACAAAGCUUGAGACCAUCUUCGGAUGCAGAGGCGGCAGCCUUCGGUGGCGCGAUUGCGCCAUCGUUCUCAACUAUGACACGCAAAACACGUGCUCCGUUGAAUGGAGUUUAUCAUG", "polymerase ribozyme fitness (log ratio)": "≤ -4.2"},
      {"variant": "GGAUCUUCUCGAUGUAACAAAAAAGACAAAUCUGCCACAAAGCUUAAGAGCAUCUUCCGAUGCAGAGGCGGCAGCCUUCGGUGGCGCGAUAGUGCCAACGUUCUCAACUAUGACACGCAAAACGCGUGCUCCGUUGAAUGGAUUUUCUCAUG", "polymerase ribozyme fitness (log ratio)": "≤ -4.2"},
      {"variant": "GGAUCUUCUCGAUGUAACAAAAAAGACAAAUCUGCCACAAAACUGGAGCGCAUGUUCGGAUGCAGAGGCGGCAGCCUUCGGUGGCGCGAUAGCGCCAACGUUCUCAACUAUGACACGCAAAACGCGUGCUCCGUUGAUAGGAGUUUAUCAUG", "polymerase ribozyme fitness (log ratio)": "≤ -4.2"},
      {"variant": "GGAUCUUCUCGAUGUAACAAAAAAGACAAAUCUGCCACAAAGCUUGAGAGCAUCUUCGGAUGCAGAGGCGGCAGCCUUCGGUGGAGCGAUAGCGCCAACGUUCGCAACUAUGCCACGCAUAACGCGUGCUCCGUUGAAUGGAGUUUAUCAUG", "polymerase ribozyme fitness (log ratio)": "≤ -4.2"},
      {"variant": "GGAUCUUCUCGAUGUAACAAAAAAGACAAAUCUGCCACAAAGCUUGAGAGCAUCUUCGGAUGCAGAGGCGGCAGCCUUCGGUGGCGGGAUAGCGCCAACGUUCUCAGCUAUGACACGCAAAACGCGUGCUCCGUUGAAUGGAGUUUAUCAUG", "polymerase ribozyme fitness (log ratio)": "≤ -4.2"}
    ]}
  ]
}
